What was measured:
Assay type in all cases: cell-based, Murine
MC3T3-E1 cells [1] = details: OIM, BDNF 50 ng/ml or 7,8 DHF 0.5 μM; for osteoblast cell differentiation (ALP staining): 14 days
Procedure: The Cells were washed in PBS twice, fixed for 10 minutes with fixing buffer at room temperature, and stained with ALP staining with the TRACP&ALP double-staining kit (TaKaRa, Japan, Cat. #MK300).
Then the cells were stained with 2% Alizarin Red S solution (Sigma, St. Louis, Mo., USA) to detect calcification.

RAW264.7 cells [2] = assay: RANK-L-induced RAW264.7 osteoclastogenesis (TRAP staining); details: 30 ng/ml RANK-L, day 4; BDNF 50 ng/ml or 7,8 DHF 0.5 μM
Procedure: (§1) The medium was changed to α-MEM with 5% FBS, 0.1% penicillin/streptomycin. The receptor activator of NF-κB ligand (RANK-L, 30 ng/ml) was added to induce osteoclast differentiation.
The cells were washed in PBS twice, fixed in fixing solution for 10 minutes at room temperature, and then stained the TRAP activity with the TRACP&ALP double-staining kit (TaKaRa, Japan, Cat. #MK300).
Moreover, RANK-L independently induces RAW264.7 cell osteoclastic differentiation, which efficiently generates osteoclasts in vitro.

MC3T3-E1 cells [3] = details: OIM-induced, 4 days; BDNF 50 ng/ml or 7,8 DHF 0.5 μM
RAW264.7 cells [4] = assay: Western blotting of RANK-L-induced RAW 264.7 cells; details: RANK-L-induced RAW264.7 cells
Procedure: as §1

Compound	osteoblast cell differentiation (ALP staining) (MC3T3-E1 cells [1])	RANK-L-induced increase of multinucleated osteoclastic cells (RAW264.7 cells [2])	p-C/EBPβ expression (MC3T3-E1 cells [3])	total C/EBPβ expression (MC3T3-E1 cells [3])	C/EBPβ level (RAW264.7 cells [4])	C/EBPβ/AEP pathway (RAW264.7 cells [4])	p-TrkB and p-MAPK and p-AKT signaling (RAW264.7 cells [4])	mineralization / calcium deposition (Alizarin Red S staining) (MC3T3-E1 cells [1]; 21 days)
O=c1cc(-c2ccccc2)oc2c(O)c(O)ccc12 [7,8-DHF]	further escalated	diminished	distinctly repressed	distinctly repressed	greatly reduced	inhibited	activated	–
BDNF: Brain-derived neurotrophic factor, a neurotrophin; TrkB ligand	further escalated	diminished	distinctly repressed	distinctly repressed	greatly reduced	inhibited	activated	strongly stimulates
